# Source: IntAct's records for PubMed 17258210
# B1: Myeloid differentiation primary response protein MyD88 (Homo sapiens), Q99836 (parent)
# chain: MAAGGPGAGSAAPVSSTSSLPLAALNMRVRRRLSLFLNVRTQVAADWTALAEEMDFEYLEIRQLETQADPTGRLLDAWQGRPGASVGRLLELLTKLGRDDVLLELGPSIEEDCQKYILKQQQEEAEKPLQVAAVDSSVPRTAELAGITTLDDPLGHMPERFDAFICYCPSDIQFVQEMIRQLEQTNYRLKLCVSDRDVLPGTCVWSIASELIEKRCRRMVVVVSDDYLQSKECDFQTKFALSLSPGAHQKRLIPIKYKAMKKEFPSILRFITVCDYTNPCTKSWFWTRLAKALSLP
# B2: Toll/interleukin-1 receptor domain-containing adapter protein (Homo sapiens), P58753 (parent)
# chain: MASSTSLPAPGSRPKKPLGKMADWFRQTLLKKPKKRPNSPESTSSDASQPTSQDSPLPPSLSSVTSPSLPPTHASDSGSSRWSKDYDVCVCHSEEDLVAAQDLVSYLEGSTASLRCFLQLRDATPGGAIVSELCQALSSSHCRVLLITPGFLQDPWCKYQMLQALTEAPGAEGCTIPLLSGLSRAAYPPELRFMYYVDGRGPDGGFRQVKEAVMRYLQTLS
# Variants of: B1
# Details: with tirap_human TIRAP, P58753
row,Variant,effect of a mutation on the interaction
1,P200H,decreasing interaction strength

# Variants of: B2
# Details: with myd88_human MYD88, Q99836
row,Variant,effect of a mutation on the interaction
1,MASSTSLPAPGSRPKKPLGKMADWFRQTLLKKPKKRPNSPESTSSDASQPTSQDSPLPPSLSSVTSPSLPPTHASDSGSSRWSKDYDVCVCHSEEDLVAAQDLVSYLEGSTASLRCFLQLRDATHGGAIVSELCQALSSSHCRVLLITPGFLQDPWCKYQMLQALTEAPGAEGCTIPLLSGLSRAAYPPELRFMYYVDGRGPDGGFRQVKEAVMRYLQTLS [P125H],decreasing interaction strength
